Experimental data as given in article PMC9355564, “A network of cytosolic (co)chaperones promotes the biogenesis of mitochondrial signal-anchored outer membrane proteins” (eLife, 2022).
These are yes or no findings as the source states them, for the method shown. Binding seen in cells or lysates may run through a third protein. Some binding calls cover weakened binding; strength is not graded here. For some assays here: Tags and fused reporters may be left off the sequences shown.

The chains behind the UniProt entries cited, without tags or fusion partners. Where a name states a change or a piece, a line headed by the entry shows the natural chain unless it says otherwise. Residues count along the entry.
UniProt P35180: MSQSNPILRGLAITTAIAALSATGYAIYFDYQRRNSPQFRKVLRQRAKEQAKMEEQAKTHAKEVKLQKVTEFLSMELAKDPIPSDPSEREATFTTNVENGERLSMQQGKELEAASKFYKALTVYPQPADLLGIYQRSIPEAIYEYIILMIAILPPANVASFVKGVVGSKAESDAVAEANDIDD
GST-Tom20(35-183): residues 35-183 of P35180
UniProt P00375: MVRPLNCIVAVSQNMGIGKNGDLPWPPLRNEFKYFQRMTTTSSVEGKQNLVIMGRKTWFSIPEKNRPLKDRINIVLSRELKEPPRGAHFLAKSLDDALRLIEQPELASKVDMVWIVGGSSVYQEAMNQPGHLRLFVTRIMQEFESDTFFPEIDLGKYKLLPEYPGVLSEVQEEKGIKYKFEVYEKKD
UniProt P31539: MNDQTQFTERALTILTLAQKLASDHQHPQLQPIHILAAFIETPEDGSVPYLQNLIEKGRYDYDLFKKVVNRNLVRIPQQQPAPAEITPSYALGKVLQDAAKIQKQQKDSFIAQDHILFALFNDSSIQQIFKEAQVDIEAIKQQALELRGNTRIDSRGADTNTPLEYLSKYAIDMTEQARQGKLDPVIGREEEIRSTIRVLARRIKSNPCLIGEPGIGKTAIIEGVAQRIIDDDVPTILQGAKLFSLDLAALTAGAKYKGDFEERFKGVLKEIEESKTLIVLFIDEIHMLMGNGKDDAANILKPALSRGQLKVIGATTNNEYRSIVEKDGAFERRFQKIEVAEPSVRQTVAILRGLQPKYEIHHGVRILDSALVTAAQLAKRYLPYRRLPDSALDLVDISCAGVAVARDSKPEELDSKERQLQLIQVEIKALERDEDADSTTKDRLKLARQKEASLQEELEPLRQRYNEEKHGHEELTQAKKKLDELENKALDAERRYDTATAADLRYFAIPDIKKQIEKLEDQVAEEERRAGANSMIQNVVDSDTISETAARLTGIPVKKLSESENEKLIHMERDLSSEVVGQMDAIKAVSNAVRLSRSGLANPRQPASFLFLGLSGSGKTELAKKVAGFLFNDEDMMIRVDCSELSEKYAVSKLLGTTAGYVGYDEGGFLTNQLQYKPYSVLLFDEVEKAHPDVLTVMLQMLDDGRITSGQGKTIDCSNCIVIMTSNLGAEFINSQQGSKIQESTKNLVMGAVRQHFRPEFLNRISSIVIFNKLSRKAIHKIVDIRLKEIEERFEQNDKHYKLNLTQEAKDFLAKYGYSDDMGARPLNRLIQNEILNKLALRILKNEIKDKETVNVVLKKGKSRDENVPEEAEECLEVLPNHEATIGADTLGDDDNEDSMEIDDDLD
UniProt P25491: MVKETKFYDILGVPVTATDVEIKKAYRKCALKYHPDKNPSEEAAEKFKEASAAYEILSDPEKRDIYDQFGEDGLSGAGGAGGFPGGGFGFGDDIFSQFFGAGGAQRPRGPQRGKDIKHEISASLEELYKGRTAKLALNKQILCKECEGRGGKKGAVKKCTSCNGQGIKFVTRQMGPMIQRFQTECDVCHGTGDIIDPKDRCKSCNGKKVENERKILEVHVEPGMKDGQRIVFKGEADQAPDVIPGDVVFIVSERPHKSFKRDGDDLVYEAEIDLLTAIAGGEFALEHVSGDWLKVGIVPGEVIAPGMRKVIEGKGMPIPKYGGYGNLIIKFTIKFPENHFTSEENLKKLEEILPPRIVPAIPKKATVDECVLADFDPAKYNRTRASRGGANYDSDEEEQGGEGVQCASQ
UniProt Q12329: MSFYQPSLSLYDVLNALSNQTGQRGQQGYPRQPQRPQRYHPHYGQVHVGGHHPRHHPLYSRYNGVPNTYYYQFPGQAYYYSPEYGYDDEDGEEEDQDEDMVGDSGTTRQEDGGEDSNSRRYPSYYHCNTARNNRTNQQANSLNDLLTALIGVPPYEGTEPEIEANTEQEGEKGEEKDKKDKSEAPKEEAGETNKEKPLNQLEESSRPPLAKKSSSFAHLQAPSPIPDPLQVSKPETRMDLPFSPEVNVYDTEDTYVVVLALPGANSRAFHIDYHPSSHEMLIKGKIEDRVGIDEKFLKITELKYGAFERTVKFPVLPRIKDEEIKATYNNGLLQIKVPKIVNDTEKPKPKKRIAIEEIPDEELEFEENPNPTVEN

What was measured:
[1] = biological target: GST-Tom20(35-183) (S. cerevisiae) (UniProt P35180); assay: pull-down; purified GST, GST-Tom20 or GST-Tom70 on glutathione sepharose beads blocked with 5% BSA, mixed with cleared in vitro translation reactions (yeast extract) of HA-tagged proteins; ATP added every 30 min; 20 mM Hepes, 100 mM NaCl, 1 mM MgCl2, pH 7.25; anti-HA blot; only the target purified
[2] = biological target: T1, GST-Tom70(46-617) (S. cerevisiae) (UniProt P07213); assay: as above
T1 sequence: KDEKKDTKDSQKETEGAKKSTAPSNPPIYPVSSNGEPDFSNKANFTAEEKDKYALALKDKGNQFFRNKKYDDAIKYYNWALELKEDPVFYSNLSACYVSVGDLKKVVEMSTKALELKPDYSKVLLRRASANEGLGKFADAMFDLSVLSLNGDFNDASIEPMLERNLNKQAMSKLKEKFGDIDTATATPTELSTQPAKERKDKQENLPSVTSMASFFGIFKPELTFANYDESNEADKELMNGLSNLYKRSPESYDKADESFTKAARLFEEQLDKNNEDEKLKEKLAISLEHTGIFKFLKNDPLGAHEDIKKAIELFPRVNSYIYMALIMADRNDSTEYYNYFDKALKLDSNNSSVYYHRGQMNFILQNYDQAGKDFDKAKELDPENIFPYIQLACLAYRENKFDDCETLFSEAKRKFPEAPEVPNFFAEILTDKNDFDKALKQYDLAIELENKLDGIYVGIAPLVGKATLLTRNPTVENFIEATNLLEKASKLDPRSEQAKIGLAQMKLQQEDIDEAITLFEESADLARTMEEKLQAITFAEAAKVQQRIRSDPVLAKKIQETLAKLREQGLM

[3] = biological target: GST-Tom20(35-183) (S. cerevisiae) (UniProt P35180); assay: pull-down; yeast extract incubated with GST alone, GST-Tom20 or GST-Tom70; eluates blotted for endogenous (co)chaperones; only the target purified
[4] = biological target: T1, GST-Tom70(46-617) (S. cerevisiae); assay: as above
[5] = biological target: T2, Mcr1-3HA (full length) (S. cerevisiae) (UniProt P36060); assay: pull-down; C-terminally 3HA-tagged proteins translated in vitro in yeast extract (from WT cells, or from cells depleted of Ydj1 and Sis1), pulled down with anti-HA beads; co-purified endogenous proteins in the eluate detected by western blot
T2 sequence: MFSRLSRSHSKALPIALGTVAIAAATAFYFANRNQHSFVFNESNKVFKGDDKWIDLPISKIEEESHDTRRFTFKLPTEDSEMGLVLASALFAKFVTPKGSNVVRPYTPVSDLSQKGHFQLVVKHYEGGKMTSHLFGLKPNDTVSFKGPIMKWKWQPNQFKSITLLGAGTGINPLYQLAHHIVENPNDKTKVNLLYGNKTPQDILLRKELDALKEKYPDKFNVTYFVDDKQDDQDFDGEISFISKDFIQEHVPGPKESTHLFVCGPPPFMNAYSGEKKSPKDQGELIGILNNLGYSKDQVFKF

[6] = biological target: T3, Msp1-3HA (full length) (S. cerevisiae) (UniProt P28737); assay: as above
T3 sequence: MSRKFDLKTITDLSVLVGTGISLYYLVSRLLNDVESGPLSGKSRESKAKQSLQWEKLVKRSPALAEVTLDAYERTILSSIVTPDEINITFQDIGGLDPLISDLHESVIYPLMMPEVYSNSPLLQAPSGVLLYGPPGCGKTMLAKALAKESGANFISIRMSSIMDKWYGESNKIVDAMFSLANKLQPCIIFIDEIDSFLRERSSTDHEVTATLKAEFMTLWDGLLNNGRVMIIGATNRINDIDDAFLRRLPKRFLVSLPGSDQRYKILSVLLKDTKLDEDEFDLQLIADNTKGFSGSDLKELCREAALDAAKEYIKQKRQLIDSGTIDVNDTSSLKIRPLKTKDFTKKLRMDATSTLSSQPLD

[7] = biological target: T4, Tom70-3HA (full length) (S. cerevisiae) (UniProt P07213); assay: as above
T4 sequence: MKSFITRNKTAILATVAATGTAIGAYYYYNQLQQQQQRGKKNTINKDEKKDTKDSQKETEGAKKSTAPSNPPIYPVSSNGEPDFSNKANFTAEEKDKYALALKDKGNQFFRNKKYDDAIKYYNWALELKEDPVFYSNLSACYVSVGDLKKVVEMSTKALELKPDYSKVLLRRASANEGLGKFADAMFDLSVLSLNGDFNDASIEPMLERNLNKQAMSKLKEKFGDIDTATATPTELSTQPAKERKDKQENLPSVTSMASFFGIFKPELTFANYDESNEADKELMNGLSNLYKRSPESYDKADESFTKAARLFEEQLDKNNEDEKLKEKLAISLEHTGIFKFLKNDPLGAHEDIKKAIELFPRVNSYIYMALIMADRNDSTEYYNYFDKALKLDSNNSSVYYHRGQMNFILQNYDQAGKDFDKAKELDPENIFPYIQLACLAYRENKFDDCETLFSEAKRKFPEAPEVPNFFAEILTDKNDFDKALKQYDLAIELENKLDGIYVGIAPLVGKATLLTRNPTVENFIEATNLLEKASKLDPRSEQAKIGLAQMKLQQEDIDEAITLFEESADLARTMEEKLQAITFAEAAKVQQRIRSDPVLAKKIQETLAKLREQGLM

[8] = biological target: Tom20-3HA (full length) (S. cerevisiae) (UniProt P35180); assay: as above

Molecule | binding [1] | binding [2] | binding [3] | binding [4] | binding [5] | binding [6] | binding [7] | binding [8]
DHFR-3HA (from UniProt P00375 1-187) | no binding | no binding | – | – | – | – | – | –
Hsp104 (from UniProt P31539 1-908) | – | – | – | binds | binds | binds | binds | binds
Aha1 (protein, UniProt Q12449 1-350) MVVNNPNNWHWVDKNCIGWAKEYFKQKLVGVEAGSVKDKKYAKIKSVSSIEGDCEVNQRKGKVISLFDLKITVLIEGHVDSKDGSALPFEGSINVPEVAFDSEASSYQFDISIFKETSELSEAKPLIRSELLPKLRQIFQQFGKDLLATHGNDIQVPESQVKSNYTRGNQKSSFTEIKDSASKPKKNALPSSTSTSAPVSSTNKVPQNGSGNSTSIYLEPTFNVPSSELYETFLDKQRILAWTRSAQFFNSGPKLETKEKFELFGGNVISELVSCEKDKKLVFHWKLKDWSAPFNSTIEMTFHESQEFHETKLQVKWTGIPVGEEDRVRANFEEYYVRSIKLTFGFGAVL | – | – | binds | – | binds weakly | binds weakly | binds weakly | binds weakly
Hsp26 (protein, UniProt P15992 1-214) MSFNSPFFDFFDNINNEVDAFNRLLGEGGLRGYAPRRQLANTPAKDSTGKEVARPNNYAGALYDPRDETLDDWFDNDLSLFPSGFGFPRSVAVPVDILDHDNNYELKVVVPGVKSKKDIDIEYHQNKNQILVSGEIPSTLNEESKDKVKVKESSSGKFKRVITLPDYPGVDADNIKADYANGVLTLTVPKLKPQKDGKNHVKKIEVSSQESWGN | – | – | no binding | no binding | binds | binds | binds | binds
Hch1 (protein, UniProt P53834 1-153) MVVLNPNNWHWVDKNTLPWSKDYLNGKLTSLSTVSSDGKSKIELTQVSSITGDSNVSQRKGKPICYFDLQLSMNVKVTNLDTNKDDEDDDGILADGKLEIPEFMHDESDIPILSQGFDAFDGLVRSEFVPKVVETLLKYQDDLIKEHSKDIQV | – | – | no binding | no binding | – | – | – | –

The remaining lines, values ahead:

binding [1] | binding [2] | binding [3] | binding [4] | binding [5] | binding [6] | binding [7] | binding [8] | Molecule
– | – | binds | binds | binds | binds | – | – | Ydj1 (from UniProt P25491 1-409)
– | – | – | – | binds weakly | binds weakly | binds weakly | binds weakly | Hsp42 (from UniProt Q12329 1-375)
– | – | – | – | binds | binds | binds | binds | Sis1 (endogenous) (protein, UniProt P25294 1-352) MVKETKLYDLLGVSPSANEQELKKGYRKAALKYHPDKPTGDTEKFKEISEAFEILNDPQKREIYDQYGLEAARSGGPSFGPGGPGGAGGAGGFPGGAGGFSGGHAFSNEDAFNIFSQFFGGSSPFGGADDSGFSFSSYPSGGGAGMGGMPGGMGGMHGGMGGMPGGFRSASSSPTYPEEETVQVNLPVSLEDLFVGKKKSFKIGRKGPHGASEKTQIDIQLKPGWKAGTKITYKNQGDYNPQTGRRKTLQFVIQEKSHPNFKRDGDDLIYTLPLSFKESLLGFSKTIQTIDGRTLPLSRVQPVQPSQTSTYPGQGMPTPKNPSQRGNLIVKYKVDYPISLNDAQKRAIDENF
– | – | – | – | binds | binds | binds | binds | Djp1 (protein, UniProt P40564 1-432) MVVDTEYYDLLGVSTTASSIEIKKAYRKKSIQEHPDKNPNDPTATERFQAISEAYQVLGDDDLRAKYDKYGRKEAIPQGGFEDAAEQFSVIFGGDAFASYIGELMLLKNLQKTEELNAEDEAEKEKENVETMEESPADGKTNGTTNAVDAALGNTNEKDDKNKARTTSGNLTVHDGNKKNEQVGAEAKKKKTKLEQFEEEQEVEKQKRVDQLSKTLIERLSILTESVYDDACKDSFKKKFEEEANLLKMESFGLDILHTIGDVYYEKAEIFLASQNLFGMGGIFHSMKAKGGVFMDTLRTVSAAIDAQNTMKELEKMKEASTNNEPLFDKDGNEQIKPTTEELAQQEQLLMGKVLSAAWHGSKYEITSTLRGVCKKVLEDDSVSKKTLIRRAEAMKLLGEVFKKTFRTKVEQEEAQIFEELVAEATKKKRHT
– | – | – | binds | binds weakly | binds weakly | binds weakly | binds weakly | Sti1 (protein, UniProt P15705 1-589) MSLTADEYKQQGNAAFTAKDYDKAIELFTKAIEVSETPNHVLYSNRSACYTSLKKFSDALNDANECVKINPSWSKGYNRLGAAHLGLGDLDEAESNYKKALELDASNKAAKEGLDQVHRTQQARQAQPDLGLTQLFADPNLIENLKKNPKTSEMMKDPQLVAKLIGYKQNPQAIGQDLFTDPRLMTIMATLMGVDLNMDDINQSNSMPKEPETSKSTEQKKDAEPQSDSTTSKENSSKAPQKEESKESEPMEVDEDDSKIEADKEKAEGNKFYKARQFDEAIEHYNKAWELHKDITYLNNRAAAEYEKGEYETAISTLNDAVEQGREMRADYKVISKSFARIGNAYHKLGDLKKTIEYYQKSLTEHRTADILTKLRNAEKELKKAEAEAYVNPEKAEEARLEGKEYFTKSDWPNAVKAYTEMIKRAPEDARGYSNRAAALAKLMSFPEAIADCNKAIEKDPNFVRAYIRKATAQIAVKEYASALETLDAARTKDAEVNNGSSAREIDQLYYKASQQRFQPGTSNETPEETYQRAMKDPEVAAIMQDPVMQSILQQAQQNPAALQEHMKNPEVFKKIQTLIAAGIIRTGR
